Test results reported in the RNAGym collection of RNA variant scans (doi:10.7554/elife.90254).
The source gives no read counts; variants with many changes may rest on few reads.

B1: LINE1-mini (parent)
chain: GGCAGAGCUCAACACAGCGUGGCAAAGUGGCUGUGGCUAGACUGCC

Variants of: B1
Experiment: self-cleavage, relative activity (ratio to wild type); higher = more cleavage; in vitro, sequencing; the parent is a self-cleaving ribozyme
A4U G5U G29C showed a self-cleavage of 0.13. G7U C10U A14U C23G A24G G27C U28A G33C gave a self-cleavage of 0. In the case of A11C A25C A26C U32A, the self-cleavage is reported as 0.01. In the case of A12C C23U G29U A39U A41C, the self-cleavage is reported as 0.01. For G1C A11C G40U U43G, the self-cleavage was 0.01. G5C G27C G30U U38A showed a self-cleavage of 0.07. C3A G35A A41C G44U showed a self-cleavage of 0.09. With C3U A4U U9A C10G the self-cleavage was 0.07. For C23U G33U C37U, the self-cleavage was 0.16. Work on C8G C18A G30C C31G U43A yielded a self-cleavage of 0.02. Variant G17C G21U A24U has a self-cleavage of 1.35. With A6G A12G G44A the self-cleavage was 0.04. C18U U28A G33U U43C showed a self-cleavage of 0.02. A12U C15U A16U G19U C42G gave a self-cleavage of 0.15. In the case of A6C U9A G17U G22C C31G G40C, the self-cleavage is reported as 0.02. G1A G5A G22A G36U showed a self-cleavage of 0.14. Variant A6G G7C G30A G40A has a self-cleavage of 0.04. In the case of G5U G21U G27A A41C U43C, the self-cleavage is reported as 0.02. G7C G19U G27U U43A gave a self-cleavage of 0.01. In the case of G2C G5A A24U A41U, the self-cleavage is reported as 0.03. G7A A26G G29U G33A G35U showed a self-cleavage of 0.31. G2C G7U A16U G35A U38G gave a self-cleavage of 0.29. Variant A4C C10A G29U has a self-cleavage of 0.01. With U9C G30A C37A C46A the self-cleavage was 0.01. In the case of G1C A4U G17U G19U U34G C46U, the self-cleavage is reported as 0.03. For G5A U9A C15U G33C, the self-cleavage was 0.28. C3A C15U G21U G40U showed a self-cleavage of 0.07. Variant G1U C37U A39U has a self-cleavage of 0.01. With G2A A16U G40C C46G the self-cleavage was 0.13. In the case of C3G C13A U28A G36A C45A C46G, the self-cleavage is reported as 0.13. Work on C13A U38A G44A yielded a self-cleavage of 0.23. For C3G G5U A41U, the self-cleavage was 0.1. Variant C10A A25C C42U has a self-cleavage of 0.04. Variant G2A C3G C18U has a self-cleavage of 0.66. For C3U G33A U38A, the self-cleavage was 0.14. C8A G35A U38C G40C gave a self-cleavage of 0.04. Work on A11G A14C G19U G29U yielded a self-cleavage of 0.02. A6G G22C G29A showed a self-cleavage of 0.11. G1C A6C C10A A14C C18A G33C gave a self-cleavage of 0.02. For G1A C18G G21U C23U G30C C31U U38G A39C C46U, the self-cleavage was 0.15. For C3A C18G G21A, the self-cleavage was 0.13. Work on G7A U9G G30U C46U yielded a self-cleavage of 0.07. Work on G1A C18U G29A U32G A41G yielded a self-cleavage of 0.05. For C3G G21C A26G G27U C31A C45G, the self-cleavage was 0.01. C8A G21U C23A G29U showed a self-cleavage of 0.13. U9C C15A G19A A39G showed a self-cleavage of 0.01. Work on C3U G5A U28A C46G yielded a self-cleavage of 0.14. Work on A25U C45A C46G yielded a self-cleavage of 0.05. G1C C37G U38C C45U showed a self-cleavage of 0.01. Variant G2A C13U C15A G19U U28C has a self-cleavage of 0.11. Variant G22A U34G C37G has a self-cleavage of 0.04. Variant G5C C10A A14C A39C has a self-cleavage of 0.01. Variant G1A G17C A39U has a self-cleavage of 0.29. With G19A A39U G40U A41G G44A the self-cleavage was 0.19. A4G C10U A14U G35U gave a self-cleavage of 0.17. For U9G U20A G21A G33U G36C, the self-cleavage was 0.01. C18G G19U G21C C23A G30A G44U showed a self-cleavage of 0.07. In the case of C15G U32A A39U, the self-cleavage is reported as 0.05. G21A A25U C45A showed a self-cleavage of 0.56. In the case of G19U A25C C42G, the self-cleavage is reported as 0.02. Variant C15A A24U U38C has a self-cleavage of 0.05. In the case of A25C G36A C45G, the self-cleavage is reported as 0.01. In the case of G1U C10A G22A C23G U38C G40C, the self-cleavage is reported as 0.01. U28A G33C U34A G36A C37G A41G showed a self-cleavage of 0.02. A12U G19C A24C A26U G30A gave a self-cleavage of 0.02. Work on G5U A12C G21U C46A yielded a self-cleavage of 0.01. For G2C C18G G33U U43G, the self-cleavage was 0.01. For G19A G33U G35U, the self-cleavage was 0.03. In the case of G5C A6U C42A, the self-cleavage is reported as 0.23. A14C G22A G35C showed a self-cleavage of 0.06. Work on C15A G17U C45U C46U yielded a self-cleavage of 0.04. Work on U9A C23U A26C G29C C46A yielded a self-cleavage of 0.14. Work on C23G A24U U34A G36U yielded a self-cleavage of 0.01. Work on C13A G33C G40U C46A yielded a self-cleavage of 0.02. In the case of G1A G17U G35U, the self-cleavage is reported as 0. C3A C23G G29A G44A gave a self-cleavage of 0.55. G7C G30A C37A gave a self-cleavage of 0.27. For A6G G17A A26C A39G, the self-cleavage was 0.01. With G1U C31A G35U A41U the self-cleavage was 0.04. Variant G2C G17U G19U U32G has a self-cleavage of 0.3. Work on G22C A26U G30C G36U C42A C46G yielded a self-cleavage of 0.06. Work on C3U G29C C37A C42A U43G yielded a self-cleavage of 0.04. C10A C15U G17A G19U A41G gave a self-cleavage of 0.03. C13G C37U C42G gave a self-cleavage of 0.06. G7A C10A U20C C23U gave a self-cleavage of 0.03. Work on C3U C23A C31G yielded a self-cleavage of 0.05. Work on A11G C13G G27U A39C yielded a self-cleavage of 0.03. With C8A G21C G29A the self-cleavage was 0.25. With G2A A11G A12G G21C U28G the self-cleavage was 0.02. C18U C23A A25G U28C showed a self-cleavage of 0.23. Work on G40C C42G G44U yielded a self-cleavage of 0.09. With G2C U20G U34G the self-cleavage was 0.01. For C10A A16U A24C C31U G40C, the self-cleavage was 0.04. G1U A11C A41U showed a self-cleavage of 0.05. Work on A6G G7C A11C C13G G29U C42A yielded a self-cleavage of 0.01. C8G U20C G29A showed a self-cleavage of 0.07. Variant G2C G5U C10G C15G A39C has a self-cleavage of 0. In the case of C8U U9C C10A C31G G33A C37G, the self-cleavage is reported as 0.02. G1C A6C G7U C8U A11U gave a self-cleavage of 0.01. Work on G7A A12C C37U yielded a self-cleavage of 0.01. G2A C3A A24G A25U gave a self-cleavage of 0.99. In the case of A6U C15U G17C A24G A41C, the self-cleavage is reported as 0.07. With C10A G35C G36U U43A the self-cleavage was 0. C3U G7A A25G showed a self-cleavage of 0.05. For C15A G35C G40U, the self-cleavage was 0. Variant C23U A25U U32A G33A has a self-cleavage of 0.03. A12U A14C G29C gave a self-cleavage of 0.03. U32G A39C A41G showed a self-cleavage of 0.06. For G7U A12U G27A A41U, the self-cleavage was 0.08. For G1A C3U G5U C8U U9G C13U U28A G30A G44C, the self-cleavage was 0.27. With G17C U32A A41U the self-cleavage was 0.08. In the case of A6U C10A C31U A39C, the self-cleavage is reported as 0.01. Variant G7A C15A C18A has a self-cleavage of 0.18. Variant C3U U43G C46U has a self-cleavage of 0.01. G5U C8A C10U G33A G40U gave a self-cleavage of 0.05. Variant C15G A16C A25G C46U has a self-cleavage of 0. With G7C C10G A11G G21U C46U the self-cleavage was 0.01. U9A A14G G17A G36U showed a self-cleavage of 0.04. With C13A G21U C42A C46G the self-cleavage was 0.07. In the case of G1U U20A G29U G33C U34A U43C, the self-cleavage is reported as 0.01. For C3A C8A C15U, the self-cleavage was 0.66. Variant G2C A4U U9G A12U A16U C37U has a self-cleavage of 0.01. C10A G17C G19C gave a self-cleavage of 0.08. Variant G2U A16U U38G has a self-cleavage of 0.01. Work on C10U C18U G19A C42A yielded a self-cleavage of 0.02. With A6C C8A G44U C45A the self-cleavage was 0.62. A6G G22A C23U A24U G40C showed a self-cleavage of 0.25. In the case of G7A A12U A24U G30U G35U, the self-cleavage is reported as 0.23. G2U A12U C18G G21U C23G G27U G33A showed a self-cleavage of 0.01. Work on A12U G21A A25G U34A yielded a self-cleavage of 0.01. C8U A12U G36U gave a self-cleavage of 0.35. Work on C8A U9A C10A C18A G33U yielded a self-cleavage of 0. For G17A C23U G33A A41G, the self-cleavage was 0.12. Work on G1C C8U A25U U28C U43A yielded a self-cleavage of 0.01. Work on C8U U9G C37U A39C G40U C46A yielded a self-cleavage of 0.02. With U9A C31U A39G the self-cleavage was 0.02. In the case of A26G C31U G36U, the self-cleavage is reported as 0.08. G29U C37G A41C showed a self-cleavage of 0.02. In the case of U9G U43G G44C C45G, the self-cleavage is reported as 0.04. G19U G29C G40A C42A showed a self-cleavage of 0. For U9C A14G G35C A41C, the self-cleavage was 0.01. G1U A12G C15A C18U G29C U38C showed a self-cleavage of 0.01. In the case of A6C G29U U38G, the self-cleavage is reported as 0.06. Work on C3G G21A C23G A25C C46A yielded a self-cleavage of 0.07. Work on G2A G33U G40C yielded a self-cleavage of 0.2. G1U G5C C8G G19A G21U G22U G29U G40U showed a self-cleavage of 0.01. With U9A G22U U38A C45G the self-cleavage was 0.16. With G2C U9A A26C G40A G44A the self-cleavage was 0.1. G7C C10A A39U showed a self-cleavage of 0.02. Variant U9C C13G G30C has a self-cleavage of 0.03. With G19A G40A A41G the self-cleavage was 0.07. Variant C18G G33U G36A U43C has a self-cleavage of 0.03. G2A A25C A39G gave a self-cleavage of 0.12. C15A C31A U34C C37G gave a self-cleavage of 0.01. Work on A25G U38G G40U yielded a self-cleavage of 0.11. For G2C A6U G30U G44U C45U, the self-cleavage was 0.03. In the case of U9C A11G A12G G22C U38A, the self-cleavage is reported as 0. Work on G1A U9G G17U G30A C46A yielded a self-cleavage of 0.13. G19A C23A G29A U38C showed a self-cleavage of 0.24. C8G C13G A26G G33U C45A gave a self-cleavage of 0.01. G17U G30A A39C gave a self-cleavage of 0.27. A16C G17C G21C G27U gave a self-cleavage of 0.04. C3A G7A C18A G21C G44U gave a self-cleavage of 0.02. With U34C C45G C46G the self-cleavage was 0.05. In the case of C8A C10G A12U C15A C18G C37A U38C, the self-cleavage is reported as 0.01. A12U G17A C42A showed a self-cleavage of 0.01. G2A C8G G30A U32G G36U C45G showed a self-cleavage of 0.05.
